According to the supplement of paper PMC7826260:
The list shows a part of the results. Cleavage of a single-stranded DNA pool by Rep nickase domains was read by sequencing (1 h at 37 °C, 3 µM enzyme); the outer parts of the 90-letter strands are left off. Uncut reads are compared with the no-enzyme pool on a log2 scale; uncut sequences lie near 0, cut ones below; no hit call is given. Shares of all reads are compared; uncut strands gain when others are lost, and binding without cutting may add a little.

The sequences below were run on T1, Rep nickase domain of tomato golden mosaic virus (assay: uncleaved DNA left, log2 of reads against the no-enzyme library (log2 ratio); higher = less cleavage (more negative = more Rep cleavage of the k-mer); sequences stand for … in CTCGTCCG…ACCGGAGA).
T1 sequence (residues 1-124 of Rep, tag left off): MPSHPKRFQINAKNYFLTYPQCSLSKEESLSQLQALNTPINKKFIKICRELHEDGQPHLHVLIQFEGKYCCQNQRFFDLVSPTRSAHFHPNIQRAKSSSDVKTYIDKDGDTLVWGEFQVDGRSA
Method: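 A pool of 90-nt single-stranded DNAs with seven random bases just before the constant AC of the nick site (name = the seven bases) was cut by 3 µM recombinant His6-SUMO-tagged Rep nickase domain (300 nM DNA, 50 mM HEPES pH 8.0, 50 mM NaCl, 1 mM MnCl2, 1 h, 37 °C, three replicates). Uncut DNA was amplified and sequenced.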

| Sequence | uncleaved DNA left (log2) |
| --- | --- |
| GTTTTCA | 0.136 |
| TTGGACG | 0.0237 |
| AGTGCAT | 0.00907 |
| GAGTTGC | -0.157 |
| GACGTAA | -0.0787 |
| AGGAGTC | 0.0363 |
| CAAACAC | -0.0372 |
| GCGCGCA | -0.0384 |
| ATACGCT | -0.0835 |
| GATGTTA | 0.117 |
| TAAGACT | -0.0105 |
| ACCCGTC | -0.153 |
| TCTCAAC | -0.0671 |
| ATGTCCC | 0.0273 |
| TGACGCT | -0.122 |
| GAGCTCT | 0.0584 |
| CTTCCTT | -0.152 |
| CTTATCG | -0.0814 |
| AAATCAC | -0.0177 |
| TCGATTT | -0.133 |

| Sequence | uncleaved DNA left (log2) |
| --- | --- |
| ACGATGT | 0.139 |
| AAATTCT | -4.42 |
| TGCATGC | 0.00583 |
| TAGACAA | 0.0613 |
| CTCTGGC | -0.0306 |
| AAGTGGC | 0.03 |
| TCTCGGC | 0.0332 |
| AATGTCT | 0.0369 |
| ATATTGA | -0.0304 |
| CATACAC | -0.0731 |
| ACAGACC | -0.0171 |
| TTAAATC | 0.0696 |
| TTGACTA | 0.0248 |
| ACAACTC | -0.0831 |
| GCGATGA | -0.033 |
| ATGACGA | 0.0661 |
| ACATGCT | -0.133 |
| AACATTC | -0.0119 |
| TGGTCAC | 0.131 |
| CTTTGCT | -0.155 |
